Measurements taken from the supplement of paper PMC3334620.
In all, about 33,000 sequences were measured (“E-score (-0.5 to 0.5)”: median about -0.021, highest 2% from about 0.32 on). The list shows a part of the results.

Molecular target: T1, Zap1 (UniProt P47043)
T1 sequence: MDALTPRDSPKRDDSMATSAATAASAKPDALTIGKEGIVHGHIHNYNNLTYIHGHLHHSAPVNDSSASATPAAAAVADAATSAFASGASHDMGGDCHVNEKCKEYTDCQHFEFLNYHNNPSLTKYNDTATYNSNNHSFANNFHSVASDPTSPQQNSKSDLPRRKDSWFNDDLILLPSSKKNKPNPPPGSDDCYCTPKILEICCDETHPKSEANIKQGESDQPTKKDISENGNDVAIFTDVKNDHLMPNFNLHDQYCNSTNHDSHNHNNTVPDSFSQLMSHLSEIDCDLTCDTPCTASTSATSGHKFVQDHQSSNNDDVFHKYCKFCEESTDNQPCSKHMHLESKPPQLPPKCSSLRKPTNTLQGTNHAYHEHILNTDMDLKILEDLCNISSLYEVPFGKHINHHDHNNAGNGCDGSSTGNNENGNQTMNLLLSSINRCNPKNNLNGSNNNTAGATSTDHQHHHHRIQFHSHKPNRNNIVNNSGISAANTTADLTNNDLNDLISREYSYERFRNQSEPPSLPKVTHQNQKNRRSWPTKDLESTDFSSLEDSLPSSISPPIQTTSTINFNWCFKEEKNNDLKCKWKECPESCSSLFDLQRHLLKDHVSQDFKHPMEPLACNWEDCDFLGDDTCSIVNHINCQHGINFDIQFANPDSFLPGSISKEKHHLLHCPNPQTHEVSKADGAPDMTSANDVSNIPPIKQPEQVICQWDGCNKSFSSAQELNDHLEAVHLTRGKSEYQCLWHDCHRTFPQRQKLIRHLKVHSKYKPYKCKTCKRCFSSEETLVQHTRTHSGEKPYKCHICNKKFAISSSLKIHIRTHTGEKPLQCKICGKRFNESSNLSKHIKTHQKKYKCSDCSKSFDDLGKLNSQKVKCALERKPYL
Test: PBM E-score (8-mer binding enrichment) (E-score (-0.5 to 0.5)); higher = stronger / more preferred TF binding; most listed sequences are background and not binding sites
Settings: protein concentration: 200 nM; construct: GST-full length
In short: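 PURExpress in vitro transcription/translation supplied GST-tagged yeast transcription factors, either full-length or DNA-binding domain. Applied at about 100-200 nM to universal all-10-mer Agilent arrays double-stranded by primer extension, the bound protein was detected with fluorescent anti-GST. E-scores, modified Wilcoxon-Mann-Whitney statistics, were given by the Universal PBM Analysis Suite to ungapped eight-base words pooled with their reverse complements after masliner normalisation.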

Sequence	PBM E-score
CCCTGTAC	-0.119
ATTTCTTG	0.0978
GACGCAAC	0.0304
AAGTCCAT	-0.12
ACAAGGTC	0.294
ATCCATCC	-0.221
GTAAGCCA	-0.0931
AAGCGGAA	-0.162
CATCATGC	-0.0984
GCACTTCA	-0.125
ATGCAAAA	0.0603
GAGCCACC	-0.0874
CATATAAA	0.141
TCTGAAAA	0.0796
CGGATCTC	-0.104
CATCACCG	-0.0753
CTCTCGGA	-0.0124
CCTCGAAC	0.175
GGGACACA	0.123
CCCATATA	0.159
AGTGAAAC	0.02
CATTATGC	-0.0305
CCCATCCG	-0.128
CATATGAC	0.153
ATATTCTC	0.0406

Sequence	PBM E-score
GAGTTACA	0.0751
AAGATACT	-0.115
AATGTGGC	-0.103
ACCCTCAG	0.325
GCGAGCGA	-0.039
ATCGCATG	-0.0268
ATAATGTG	-0.0256
ATCTGACG	-0.195
CGTATAAG	-0.121
ACGACAGC	-0.131
CACCCTAG	0.353
CGATTAAG	-0.0902
AATAGATT	0.0206
GCACCAAA	0.0458
ATCCAGAC	-0.0335
AGAGGTGA	0.272
CTTAGTAC	0.0955
ATGGAACG	-0.116
AGTTAATC	-0.0165
AGTCAACG	-0.175
GAAAACAC	0.146
AGTTGCGG	0.203
AGCCGTGA	-0.134
ACGCCCTA	0.0643
ACAGTTAA	0.156

Sequence	PBM E-score
ACGGGAGG	-0.239
CAACGAAA	0.144
GTTAATCA	0.262
TCTTACAA	0.0246
ATTAGGAC	-0.00125
GTGTTCCA	-0.0446
CCAAGTTC	0.00712
CGGCCCTA	-0.0189
GCACCAGC	-0.181
GTAAACTA	0.0939
GCCGCTCA	-0.14
AACACTTC	0.0557
ACCACCCT	0.352
ATCGGCAC	-0.172
CTATGGGC	-0.213
CCCCGCGC	-0.138
GCCCGGGA	0.0322
CGGAATCA	-0.0619
CACGTATG	0.0325
GGCCTTCA	0.167
AAATGGAG	-0.132
CGTACCGC	-0.055
CAATTTGG	-0.0362
AACCGACA	0.158
ACACGGGA	-0.161

Sequence	PBM E-score
GCTTGTCA	-0.0265
CTCCCACA	-0.209
AGCCTACC	-0.0988
CGTGTCGA	0.0265
GCAATAAA	0.243
AATATACG	-0.127
CATAACTC	0.132
CAGGCAAC	-0.164
AACAAGGT	0.293
ATAAATTC	-0.0101
CCGCACTC	-0.0319
AAGTCTAC	-0.0493
GCCCCAGA	-0.0408
CATGATCG	0.06
CCACACCC	0.181
CTGGTCAC	0.148
CAGGCTAC	-0.144
CGCATATC	0.104
TACTCCCA	-0.0615
ACCGGACA	-0.0999
CGGCTAGA	-0.178
ACGTGGAC	-0.0518
CAAAGCCC	-0.22
AGGAGTTG	-0.0268
AACCTTCA	0.368

Sequence	PBM E-score
AAGCATAT	0.0223
ACTGGCTA	-0.0583
CTCAGTAC	-0.0326
AGCGTGCC	-0.33
GAGTTCCA	0.0167
GCTGTCCC	-0.127
CGCCCCAA	0.253
CGTTTCTC	-0.106
ACATCGAA	0.0163
AGATAGGA	-0.186
AGGAGTAG	-0.0329
CAACAAGA	0.129
AACTCCAA	-0.0751
CCACCTAC	-0.188
CATAAAAG	0.135
AGGACCAA	0.159
ACTTACAT	0.00526
CCCGCTAC	0.0597
AGAAACAC	0.166
ACCATAAC	0.399
AAAAGGAT	0.0556
GACGTCAC	-0.223
CACGTAAA	-0.289
CCTCTGTC	0.0337
ACCCTTAA	0.443

Sequence	PBM E-score
ACTACCCT	0.445
GACTCCAC	-0.358
AGCTGCAC	-0.101
CTAAGAAA	0.0841
CCAACCAC	0.256
AACTCACA	0.111
TCGGGCCA	-0.122
ACTCTTTG	-0.0892
CGGAGTGC	-0.0171
AGCGTTTG	0.0372
GGGCGGGA	0.0916
AGCAGCAA	0.0188
ACAGGGGT	0.208
ACGACCGT	-0.134
GCAGGCAC	-0.0855
CGAGTACA	-0.037
AGGATCGC	-0.11
CCGTCCAA	-0.134
ACCAACAC	0.178
AAAACAAC	-0.0349
CACATAGG	-0.008
CAGGTTGA	-0.0454
CCTCCATC	-0.227
AAAATAAG	0.0496
ATTGCTTC	-0.0372

Sequence	PBM E-score
CGAACGCA	0.163
GCGCCTCA	-0.204
AGGGCAAC	-0.11
ACATTTCT	-0.0508
CACTCAAG	0.0566
ATCGCGGC	0.1
CCATGCAG	-0.123
AACCGGCA	0.133
CCCTTAAA	0.0531
ATTTCCAG	0.0665
CCCATATC	0.0562
GCTTCTAA	-0.247
CGCAACAA	0.109
CAAAGTTA	0.213
ATTTGGGG	0.0876
TCGGCCCA	-0.0267
CAAGCGAA	-0.109
GGCTCGGA	-0.294
CTGGTTAC	0.412
ATCTTAAT	-0.00148
GAGGCGAC	-0.297
AGCAACTA	-0.0241
CCTTAGTC	-0.112
TCGTTACA	-0.024
AAGGCCGG	0.0655

Sequence	PBM E-score
GGTAGGGA	0.0858
GCTTAGAA	0.0605
AATCCATC	-0.206
CTGTAGCA	-0.127
TCGCTGCA	-0.144
CTGGATTA	-0.0175
TTACACAA	0.21
CTGTAGAC	-0.124
ATACTCGA	-0.0721
CGCGCGCG	0.0913
CACGGAAG	-0.12
GAGCGCGA	0.0578
GCTGCTCC	-0.347
ATGACTTA	-0.00776
AACGTAGC	-0.0278
CGCCGTCA	-0.252
TCCGCTAA	0.018
ACCCTTCT	0.272
CGCTGTAC	-0.0562
ACATGGGC	-0.0618
TAGGCAGA	0.0261
GCTGGGCA	-0.212
AGGTCCTC	0.0273
AGCGTGAA	-0.112
ATCTGACC	0.187

Sequence	PBM E-score
GAGTGATC	-0.037
ATTTACGA	0.0274
AAGACCGC	0.0669
TCCGGAGA	-0.0947
ACCAACTA	0.13
CCACCTAG	-0.00242
CATCATCG	-0.119
ATGAACTA	-0.00172
AGGTGCTA	-0.197
GATGGTGC	-0.228
ATACGTGA	-0.0843
CCTCGGTA	0.148
ATGTCTAG	0.0655
CCCAGCCA	-0.115
ACGTCTTC	-0.195
ACCTATGC	-0.0629
CGCGTTAG	0.107
ACGCAAAC	-0.0124
ATTACGAA	0.196
CCCGACAG	-0.0441
ACCCCAGC	0.238
CGGCATAG	-0.0218
CCCATCAG	0.034
TATTTTAA	0.172
AGGCCGGC	-0.0951

Sequence	PBM E-score
CCCGTTAG	-0.0312
ATATGAAT	0.0691
TCTCAAGA	-0.0555
CGTATGGC	0.00486
GTCTTGGA	-0.181
GGCCCGGA	0.0567
AATAGAGC	-0.04
CCGCGCCC	-0.223
AAGAGTAC	0.0671
CGAGGTCA	0.357
GCTCCCGA	-0.288
CAAAATCA	0.133
CGGTGTAG	-0.128
ATAGTACA	0.0914
AGGGAAGG	-0.134
TAAATCTA	0.13
AGCTGCGC	-0.287
CCATTCTC	0.111
ACTTGCGC	-0.159
ACCACTTC	-0.0476
AAGCATCA	0.00653
AACGCAAT	-0.0036
CGATACTC	-0.185
CCGTGAGG	0.194
CCCAGGCA	-0.0923

Sequence	PBM E-score
AGACGTAC	-0.0429
AACCTCTC	0.349
AACGGCCG	0.0514
ACACCTAT	0.00134
TGTTAGAA	-0.00513
GTAACTTA	0.195
GGTTTCAC	0.049
CATCCCGA	-0.151
GCCTCTCA	-0.212
GTATAAAA	0.247
GGCTGGGA	-0.121
TCGTTAGA	-0.126
CTGTTGGC	-0.234
ACGAGTGA	-0.0794
AGTTCTAT	-0.0731
ATGCGGAG	-0.206
ACAACATG	0.165
AGTGACCA	0.247
GTGAACAC	-0.134
ATATATTA	0.195
GGCGCGAA	-0.0784
AGTAAGTG	-0.186
TCTTAGCA	-0.138
CGCGCGAC	0.0813
ACACGCAC	-0.0916

Sequence	PBM E-score
TCCGAACA	0.107
AAAGGGGA	-0.127
ACACTGTG	-0.0575
CAGAAGGG	0.00395
CCGCCAGA	0.0525
ATCCGCCC	-0.0928
GACACACA	0.028
ACGCCACG	-0.166
CCCATGCC	-0.0491
ACGGTCAC	0.218
CACGCAAC	0.189
AACACCTA	0.0163
CAGCAGCC	-0.128
CGTACCAC	0.0803
GCTACCCC	0.173
CCCACGAA	0.142
CTTAGGAC	-0.136
TACTAGCA	0.0424
AGTGTTTG	0.0503
TCCAGTAA	-0.0676
AGCTACAC	0.0323
CTTCTCGC	-0.203
CGGCTGAC	-0.193
GATACAGA	0.00203
CGGAGCCG	-0.0517

Sequence	PBM E-score
ACGAATCG	-0.171
CGGTTGCA	-0.0132
AGCGAACG	-0.299
CGTTTCTA	-0.012
ATTTCGCC	0.0493
GATACCTA	0.2
ATCATGAG	0.223
CATGCCAG	0.029
CGCTTAGA	-0.197
GTTCTCTA	-0.0503
GAAGGTGC	0.0253
AAACCCTT	0.272
CATCGCCA	-0.129
GATATCTA	0.108
ACGATGTC	-0.253
AGCGTTAT	-0.0138
CCAAGATA	-0.0163
AACTGGCC	-0.126
TCGATCGA	-0.0303
ACATTTAG	-0.16
AATCCTGG	-0.12
GATAGGTA	0.236
GCTCGCGA	0.147
CGCCGTGC	-0.0953
GTCACATA	0.0519

Sequence	PBM E-score
AACCGATC	-0.0219
CTCCGGCC	-0.295
CACACACC	-0.00084
CATCTCAC	-0.0113
CTCTCTCA	-0.0745
ACATCGTG	-0.128
AAGGATTG	0.0414
AGCACCAA	-0.0512
AAGTTTGT	0.109
CCATCCGC	0.00042
GCCTTACA	-0.141
CGGATCAC	0.0116
TATACGGA	0.0543
CCCTTTAA	0.286
AGACAGCC	-0.193
CCACCGTC	-0.24
TATGCTAA	0.172
AAGTTCTC	-0.103
AGTAAGCG	-0.0345
